{
  "source": "paper PMC7819943",
  "about": "“Rice protein-binding microarrays: a tool to detect cis-acting elements near promoter regions in rice”",
  "note": "Some of the results follow.",
  "data": [
    {"target": "T1, OsWOX13 (Oryza sativa, UniProt Q5QMM3 1-267)", "T1 sequence": "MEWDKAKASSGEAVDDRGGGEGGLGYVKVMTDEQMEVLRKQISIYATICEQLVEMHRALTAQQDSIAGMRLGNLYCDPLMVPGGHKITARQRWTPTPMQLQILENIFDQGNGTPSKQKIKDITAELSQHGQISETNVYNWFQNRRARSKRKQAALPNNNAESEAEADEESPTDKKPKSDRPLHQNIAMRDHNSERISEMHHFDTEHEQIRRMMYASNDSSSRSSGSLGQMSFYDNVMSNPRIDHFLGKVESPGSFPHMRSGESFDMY", "assay": "protein-binding microarray (RPBM); PBS, 2% BSA, 51.3 ng/ul salmon testes DNA, 50 uM zinc acetate, 200 nM TF, 25 C, 1 h; high values mean tight binding", "conditions": "protein: recombinant; tags: N-terminal polyhistidine and DsRed monomer fusion (pET32a); label: CyDye5-dUTP incorporated in the synthesized complementary strand; 3' TTTTT single-stranded linker to array surface; dsDNA, one strand shown", "method_in_brief": "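The binding signal is fluorescence intensity per array feature (arbitrary units). Readings came from an Axon 4000B scanner after a washed, 2% BSA-blocked, double-stranded custom Agilent array had been incubated for 1 h at 25 °C with 200 nM protein and 50 µM zinc acetate. The protein was a Ni–NTA-purified transcription factor fused N-terminally to polyhistidine and DsRed, expressed in E. coli BL21-CodonPlus.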", "values": [
      {"sequence": "TAAACTAAAATAATTTTCATTGGCAACGTACGTCAACGGTCGGAGTCACCTAGTGCAG", "binding signal": "4810 fluorescence intensity (a.u.)"},
      {"sequence": "GAGGCCAGATAGTTGATTGAATGAAGAGCTCTTGCAAAGCCGGAGTCACCTAGTGCAG", "binding signal": "18500 fluorescence intensity (a.u.)"},
      {"sequence": "ATCACCCTGATTATCGTTTCTAAGCCATATTTAGCAAACTCGGAGTCACCTAGTGCAG", "binding signal": "7470 fluorescence intensity (a.u.)"},
      {"sequence": "AAGAAATTGATAAATTAAATCGAATCCAACTTAGCACTATCGGAGTCACCTAGTGCAG", "binding signal": "42000 fluorescence intensity (a.u.)"},
      {"sequence": "ATGGCAAAGATGATTGAAGTACTCGGTTTTGGAGTAATCTCGGAGTCACCTAGTGCAG", "binding signal": "27300 fluorescence intensity (a.u.)"},
      {"sequence": "TAGATCCGTCATCTTGTTAATTAGTACTGTAGCTATCCGTCGGAGTCACCTAGTGCAG", "binding signal": "8160 fluorescence intensity (a.u.)"},
      {"sequence": "CTGTTGATGAAGAAATAAAATCGATCCTTATTTGTGCTGTCGGAGTCACCTAGTGCAG", "binding signal": "5770 fluorescence intensity (a.u.)"},
      {"sequence": "TGTAATTACGAGAACGAGCCTACCTACCAGTGCCACCATACGGAGTCACCTAGTGCAG", "binding signal": "7280 fluorescence intensity (a.u.)"},
      {"sequence": "CCACCTACCTCTAATTATCCTCCAATCACAACACTCCACTCGGAGTCACCTAGTGCAG", "binding signal": "11000 fluorescence intensity (a.u.)"},
      {"sequence": "GTACCATTAATGCAATTTATTCATCATGTATAATACTATTCGGAGTCACCTAGTGCAG", "binding signal": "4300 fluorescence intensity (a.u.)"},
      {"sequence": "GCCCTCTAATCATTGTAGCCTTGTGCCTTTCGGCTCCCCGCGGAGTCACCTAGTGCAG", "binding signal": "5250 fluorescence intensity (a.u.)"},
      {"sequence": "CAATAATTATGTTCGATTTGTAAAATTCTAATGACAATAACGGAGTCACCTAGTGCAG", "binding signal": "18200 fluorescence intensity (a.u.)"},
      {"sequence": "CACAGTTTGCAATTTGACTGTCAAGGCTTTCAGCTCAGACCGGAGTCACCTAGTGCAG", "binding signal": "3160 fluorescence intensity (a.u.)"},
      {"sequence": "AATAAATGGTTAGGATTTAAAGATGTCTTTTGGTGGGTGGCGGAGTCACCTAGTGCAG", "binding signal": "4730 fluorescence intensity (a.u.)"},
      {"sequence": "AGAAATTTAAAGAATAAATTTGAAACTAAACACGGCGCCACGGAGTCACCTAGTGCAG", "binding signal": "15300 fluorescence intensity (a.u.)"},
      {"sequence": "AATCTTTTAGCTATGCTAATTACCATGGGTAATTTGGTTACGGAGTCACCTAGTGCAG", "binding signal": "4980 fluorescence intensity (a.u.)"},
      {"sequence": "CCTAAATGGTTTTGCTTGGACACTTCTGGTTACCTTGCATCGGAGTCACCTAGTGCAG", "binding signal": "3530 fluorescence intensity (a.u.)"},
      {"sequence": "ATGCTTATTAACTAGTGTTTGATTTGTTGTTTTGTTTCAACGGAGTCACCTAGTGCAG", "binding signal": "10300 fluorescence intensity (a.u.)"},
      {"sequence": "CTAAACTTGATTTAATGTATCATCCGGATCCAAAGCCTCGCGGAGTCACCTAGTGCAG", "binding signal": "40500 fluorescence intensity (a.u.)"},
      {"sequence": "GGAGAAAAGAAATCAATCAGAAATGTAGAGGAGAAGGATGCGGAGTCACCTAGTGCAG", "binding signal": "7090 fluorescence intensity (a.u.)"},
      {"sequence": "ATCCAAATTGGCTGTCGGGGCCAGATCACGCTGTGCGCTGCGGAGTCACCTAGTGCAG", "binding signal": "18600 fluorescence intensity (a.u.)"},
      {"sequence": "GAAGATTTAATTGCAACAAATTTAATAGTGCAATCGGATCCGGAGTCACCTAGTGCAG", "binding signal": "40800 fluorescence intensity (a.u.)"},
      {"sequence": "ATAGTTATAAGTTAATTTATTGGCTTATATGATTCCCTATCGGAGTCACCTAGTGCAG", "binding signal": "5320 fluorescence intensity (a.u.)"},
      {"sequence": "TTTTAGTAAAATTGATAAATATATGAATACATTTAGTTTGCGGAGTCACCTAGTGCAG", "binding signal": "6470 fluorescence intensity (a.u.)"},
      {"sequence": "TTCATGCTGCTGGTGCCAATCAAAGGAGAGGACGACTTTTCGGAGTCACCTAGTGCAG", "binding signal": "4430 fluorescence intensity (a.u.)"},
      {"sequence": "AGAATAATTATTTAAGTTAAGGTGTGTCACACCCCAATCCCGGAGTCACCTAGTGCAG", "binding signal": "25100 fluorescence intensity (a.u.)"},
      {"sequence": "GTAATAAACTAGTAATAATGATGCAATTGATCCCTCCTGCCGGAGTCACCTAGTGCAG", "binding signal": "6310 fluorescence intensity (a.u.)"},
      {"sequence": "TAGTTTGTGATTGATTTGTCGACATCTGGAGGCGTCATGCCGGAGTCACCTAGTGCAG", "binding signal": "58400 fluorescence intensity (a.u.)"},
      {"sequence": "AATCCAATCATATTATAGCTAGTATCCAATATTCTTGTTGCGGAGTCACCTAGTGCAG", "binding signal": "15700 fluorescence intensity (a.u.)"},
      {"sequence": "ACGTTTAATATTTATAATTAATTTTCAAACATATCTTTTACGGAGTCACCTAGTGCAG", "binding signal": "5400 fluorescence intensity (a.u.)"},
      {"sequence": "TACGATAATTTTAATTATTAGGAGTAAGCTGAAACAAACACGGAGTCACCTAGTGCAG", "binding signal": "25200 fluorescence intensity (a.u.)"},
      {"sequence": "ACAATGTAGTTTTGATTAATCATATCGATCCTTGTTCCGACGGAGTCACCTAGTGCAG", "binding signal": "7360 fluorescence intensity (a.u.)"},
      {"sequence": "CATCCTGATTGATAAATTTGCTTCCAATAAACCAATAGTGCGGAGTCACCTAGTGCAG", "binding signal": "47600 fluorescence intensity (a.u.)"},
      {"sequence": "GACTGATCAAATCATGATGTTGCGATTCTCGGCGATATCGCGGAGTCACCTAGTGCAG", "binding signal": "5130 fluorescence intensity (a.u.)"},
      {"sequence": "GTATATGATCTCAAATGATTGGATTAATAATAAATTAATCCGGAGTCACCTAGTGCAG", "binding signal": "28700 fluorescence intensity (a.u.)"},
      {"sequence": "CCATTCAAATTTTAATTTCTTTTATTTCCTTTAGGCATAACGGAGTCACCTAGTGCAG", "binding signal": "4190 fluorescence intensity (a.u.)"},
      {"sequence": "ATTAACTAATCACAACTATCTTGCATTAAATTTCATCTCCCGGAGTCACCTAGTGCAG", "binding signal": "10700 fluorescence intensity (a.u.)"},
      {"sequence": "ACAATTAACTAATAATAATTAGTGATTACTTATCTTGATTCGGAGTCACCTAGTGCAG", "binding signal": "45300 fluorescence intensity (a.u.)"},
      {"sequence": "AAAGGCCCATCCAATCAATAGTCCATAATCCCTCCCCAAGCGGAGTCACCTAGTGCAG", "binding signal": "4720 fluorescence intensity (a.u.)"},
      {"sequence": "TGTTGATTGCAGGATCAAATCAACTGGCACTCTCATACACCGGAGTCACCTAGTGCAG", "binding signal": "36800 fluorescence intensity (a.u.)"},
      {"sequence": "ACAGCCTGATTGCTTCTAAAGAACTTGTCAGAGTACTAGCCGGAGTCACCTAGTGCAG", "binding signal": "28400 fluorescence intensity (a.u.)"},
      {"sequence": "CTGCGTCACGAAAGCGATTGATTGATCATCAGGTAATCCTCGGAGTCACCTAGTGCAG", "binding signal": "6520 fluorescence intensity (a.u.)"}
    ]}
  ]
}
